Experimental findings from PMC4977824 are described below.

Chains of the proteins cited; added tags and fusions are not shown.
UniProt Q05062: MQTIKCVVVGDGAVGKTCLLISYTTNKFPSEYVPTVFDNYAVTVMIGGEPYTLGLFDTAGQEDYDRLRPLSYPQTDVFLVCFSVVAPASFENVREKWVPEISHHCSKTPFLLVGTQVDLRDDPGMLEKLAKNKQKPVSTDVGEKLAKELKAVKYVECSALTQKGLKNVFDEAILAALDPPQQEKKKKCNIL

No constants are given. Whether binding was seen depends on the method and setting. For some assays here: Binding seen in cells or lysates may run through a third protein. Some results given as binding are weak or reduced against the parent protein; the word gives no strength.

The target in experiment [1] is GTA::CDC-42 (Avi-2xTEV-GFP::CDC-42) (C. elegans) (UniProt Q05062). Put plainly: co-purification (independent experiment, not shown; detection not stated); independent experiment, data not shown.
Experiment [2] has as its target T1, DLG-1 (endogenous) (C. elegans (endogenous in embryos)) (UniProt G5ECY0).
T1 sequence: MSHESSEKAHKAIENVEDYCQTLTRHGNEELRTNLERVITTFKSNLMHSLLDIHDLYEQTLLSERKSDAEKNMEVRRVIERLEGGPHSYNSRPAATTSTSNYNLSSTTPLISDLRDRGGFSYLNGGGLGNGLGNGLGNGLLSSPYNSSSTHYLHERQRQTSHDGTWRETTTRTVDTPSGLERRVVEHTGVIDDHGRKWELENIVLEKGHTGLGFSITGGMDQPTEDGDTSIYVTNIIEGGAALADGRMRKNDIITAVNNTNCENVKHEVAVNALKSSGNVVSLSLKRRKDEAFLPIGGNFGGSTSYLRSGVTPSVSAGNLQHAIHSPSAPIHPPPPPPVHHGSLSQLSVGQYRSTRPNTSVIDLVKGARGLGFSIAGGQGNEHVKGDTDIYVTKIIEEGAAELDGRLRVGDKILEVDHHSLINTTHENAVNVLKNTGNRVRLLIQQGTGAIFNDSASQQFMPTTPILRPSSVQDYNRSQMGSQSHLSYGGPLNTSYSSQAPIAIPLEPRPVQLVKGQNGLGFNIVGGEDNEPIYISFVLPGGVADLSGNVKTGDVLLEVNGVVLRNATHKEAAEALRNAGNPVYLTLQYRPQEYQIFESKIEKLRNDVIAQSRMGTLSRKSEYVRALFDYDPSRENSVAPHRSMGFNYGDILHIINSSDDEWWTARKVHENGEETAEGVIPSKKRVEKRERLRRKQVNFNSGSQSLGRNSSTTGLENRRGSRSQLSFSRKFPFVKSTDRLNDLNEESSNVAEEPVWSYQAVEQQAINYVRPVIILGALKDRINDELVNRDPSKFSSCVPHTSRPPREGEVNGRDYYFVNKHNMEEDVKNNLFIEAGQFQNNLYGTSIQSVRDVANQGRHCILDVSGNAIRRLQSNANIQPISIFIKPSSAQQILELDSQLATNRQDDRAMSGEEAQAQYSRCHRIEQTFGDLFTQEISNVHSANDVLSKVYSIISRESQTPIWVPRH
Put plainly: co-IP; C. elegans embryo lysate (20 mM Tris-HCl pH 7.8, 250 mM NaCl, 15 % glycerol, 1 % Triton X-100), 1 mg protein, IP with anti-PSD95 (DLG-1) or anti-ATAD-3 on protein G or A Sepharose, 1 h at 4 °C, western blot; controls with RNAi against gfp, dlg-1 or atad-3. On the technique in general: In western blotting, separated proteins are transferred to a membrane and probed.

For experiment [3], the target named is T2, ATAD-3 (endogenous) (C. elegans (endogenous in whole animals and embryos)) (UniProt Q20748).
T2 sequence: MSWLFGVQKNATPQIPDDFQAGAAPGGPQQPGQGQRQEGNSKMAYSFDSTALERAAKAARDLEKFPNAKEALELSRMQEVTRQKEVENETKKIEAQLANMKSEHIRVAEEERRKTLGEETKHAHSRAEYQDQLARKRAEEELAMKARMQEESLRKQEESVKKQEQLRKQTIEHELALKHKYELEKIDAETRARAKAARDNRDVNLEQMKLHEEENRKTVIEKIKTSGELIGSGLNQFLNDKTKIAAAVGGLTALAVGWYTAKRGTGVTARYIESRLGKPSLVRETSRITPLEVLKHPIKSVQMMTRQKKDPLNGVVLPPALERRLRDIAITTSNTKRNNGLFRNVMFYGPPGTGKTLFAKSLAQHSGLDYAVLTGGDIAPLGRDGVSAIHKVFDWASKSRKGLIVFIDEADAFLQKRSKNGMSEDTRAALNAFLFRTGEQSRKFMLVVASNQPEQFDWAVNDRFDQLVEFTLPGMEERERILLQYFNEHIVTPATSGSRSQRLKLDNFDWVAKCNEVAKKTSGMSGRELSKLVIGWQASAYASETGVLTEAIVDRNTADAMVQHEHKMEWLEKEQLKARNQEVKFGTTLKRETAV
Described as above.

B1: RHI-1 (protein, UniProt Q20496 1-191)
chain: MSDHENTGENTSEYQYKQPPQKSIDELLNADKEDESLKVYKAKLLGQGTVIVDEKNPLRVIVRSVELLINGKTAQSFDLSDPAKLVNSDLSVSIKEGSNYRLSFAFHVQREITSGLHYKHKVKRSGITVENEKYMMGSYAPKLEIQEYKSPNEEAPSGMMHRGKYKVYSKITDDDNNVYLDWQWTLHITKE
As for B1, the binding result in experiment [1] is on record as “binds”.

B2: ATAD-3^ΔETAV (ATAD-3 lacking the C-terminal four amino acids) (domain or fragment, UniProt Q20748 1-591)
chain: MSWLFGVQKNATPQIPDDFQAGAAPGGPQQPGQGQRQEGNSKMAYSFDSTALERAAKAARDLEKFPNAKEALELSRMQEVTRQKEVENETKKIEAQLANMKSEHIRVAEEERRKTLGEETKHAHSRAEYQDQLARKRAEEELAMKARMQEESLRKQEESVKKQEQLRKQTIEHELALKHKYELEKIDAETRARAKAARDNRDVNLEQMKLHEEENRKTVIEKIKTSGELIGSGLNQFLNDKTKIAAAVGGLTALAVGWYTAKRGTGVTARYIESRLGKPSLVRETSRITPLEVLKHPIKSVQMMTRQKKDPLNGVVLPPALERRLRDIAITTSNTKRNNGLFRNVMFYGPPGTGKTLFAKSLAQHSGLDYAVLTGGDIAPLGRDGVSAIHKVFDWASKSRKGLIVFIDEADAFLQKRSKNGMSEDTRAALNAFLFRTGEQSRKFMLVVASNQPEQFDWAVNDRFDQLVEFTLPGMEERERILLQYFNEHIVTPATSGSRSQRLKLDNFDWVAKCNEVAKKTSGMSGRELSKLVIGWQASAYASETGVLTEAIVDRNTADAMVQHEHKMEWLEKEQLKARNQEVKFGTTLKR
As to B2, in experiment [2], the binding result is given as “no binding”.

B3: DLG-1 (endogenous) (protein, UniProt G5ECY0 1-967)
chain: MSHESSEKAHKAIENVEDYCQTLTRHGNEELRTNLERVITTFKSNLMHSLLDIHDLYEQTLLSERKSDAEKNMEVRRVIERLEGGPHSYNSRPAATTSTSNYNLSSTTPLISDLRDRGGFSYLNGGGLGNGLGNGLGNGLLSSPYNSSSTHYLHERQRQTSHDGTWRETTTRTVDTPSGLERRVVEHTGVIDDHGRKWELENIVLEKGHTGLGFSITGGMDQPTEDGDTSIYVTNIIEGGAALADGRMRKNDIITAVNNTNCENVKHEVAVNALKSSGNVVSLSLKRRKDEAFLPIGGNFGGSTSYLRSGVTPSVSAGNLQHAIHSPSAPIHPPPPPPVHHGSLSQLSVGQYRSTRPNTSVIDLVKGARGLGFSIAGGQGNEHVKGDTDIYVTKIIEEGAAELDGRLRVGDKILEVDHHSLINTTHENAVNVLKNTGNRVRLLIQQGTGAIFNDSASQQFMPTTPILRPSSVQDYNRSQMGSQSHLSYGGPLNTSYSSQAPIAIPLEPRPVQLVKGQNGLGFNIVGGEDNEPIYISFVLPGGVADLSGNVKTGDVLLEVNGVVLRNATHKEAAEALRNAGNPVYLTLQYRPQEYQIFESKIEKLRNDVIAQSRMGTLSRKSEYVRALFDYDPSRENSVAPHRSMGFNYGDILHIINSSDDEWWTARKVHENGEETAEGVIPSKKRVEKRERLRRKQVNFNSGSQSLGRNSSTTGLENRRGSRSQLSFSRKFPFVKSTDRLNDLNEESSNVAEEPVWSYQAVEQQAINYVRPVIILGALKDRINDELVNRDPSKFSSCVPHTSRPPREGEVNGRDYYFVNKHNMEEDVKNNLFIEAGQFQNNLYGTSIQSVRDVANQGRHCILDVSGNAIRRLQSNANIQPISIFIKPSSAQQILELDSQLATNRQDDRAMSGEEAQAQYSRCHRIEQTFGDLFTQEISNVHSANDVLSKVYSIISRESQTPIWVPRH
Take B3: the binding result in experiment [3] is reported as “binds”.

B4: ATAD-3 (endogenous) (protein, UniProt Q20748 1-595)
chain: MSWLFGVQKNATPQIPDDFQAGAAPGGPQQPGQGQRQEGNSKMAYSFDSTALERAAKAARDLEKFPNAKEALELSRMQEVTRQKEVENETKKIEAQLANMKSEHIRVAEEERRKTLGEETKHAHSRAEYQDQLARKRAEEELAMKARMQEESLRKQEESVKKQEQLRKQTIEHELALKHKYELEKIDAETRARAKAARDNRDVNLEQMKLHEEENRKTVIEKIKTSGELIGSGLNQFLNDKTKIAAAVGGLTALAVGWYTAKRGTGVTARYIESRLGKPSLVRETSRITPLEVLKHPIKSVQMMTRQKKDPLNGVVLPPALERRLRDIAITTSNTKRNNGLFRNVMFYGPPGTGKTLFAKSLAQHSGLDYAVLTGGDIAPLGRDGVSAIHKVFDWASKSRKGLIVFIDEADAFLQKRSKNGMSEDTRAALNAFLFRTGEQSRKFMLVVASNQPEQFDWAVNDRFDQLVEFTLPGMEERERILLQYFNEHIVTPATSGSRSQRLKLDNFDWVAKCNEVAKKTSGMSGRELSKLVIGWQASAYASETGVLTEAIVDRNTADAMVQHEHKMEWLEKEQLKARNQEVKFGTTLKRETAV
On to B4, for which the binding result in experiment [2] is reported as “binds”.

B5: ATAD-3^FL (full-length ATAD-3 transgene) (protein, UniProt Q20748 1-595)
chain: MSWLFGVQKNATPQIPDDFQAGAAPGGPQQPGQGQRQEGNSKMAYSFDSTALERAAKAARDLEKFPNAKEALELSRMQEVTRQKEVENETKKIEAQLANMKSEHIRVAEEERRKTLGEETKHAHSRAEYQDQLARKRAEEELAMKARMQEESLRKQEESVKKQEQLRKQTIEHELALKHKYELEKIDAETRARAKAARDNRDVNLEQMKLHEEENRKTVIEKIKTSGELIGSGLNQFLNDKTKIAAAVGGLTALAVGWYTAKRGTGVTARYIESRLGKPSLVRETSRITPLEVLKHPIKSVQMMTRQKKDPLNGVVLPPALERRLRDIAITTSNTKRNNGLFRNVMFYGPPGTGKTLFAKSLAQHSGLDYAVLTGGDIAPLGRDGVSAIHKVFDWASKSRKGLIVFIDEADAFLQKRSKNGMSEDTRAALNAFLFRTGEQSRKFMLVVASNQPEQFDWAVNDRFDQLVEFTLPGMEERERILLQYFNEHIVTPATSGSRSQRLKLDNFDWVAKCNEVAKKTSGMSGRELSKLVIGWQASAYASETGVLTEAIVDRNTADAMVQHEHKMEWLEKEQLKARNQEVKFGTTLKRETAV
For B5, in experiment [2], the binding result is “binds”.
